For this assay, the target named is T1, MBP-tagged RIL (human, UniProt P50479 1-330).
T1 sequence (looked up): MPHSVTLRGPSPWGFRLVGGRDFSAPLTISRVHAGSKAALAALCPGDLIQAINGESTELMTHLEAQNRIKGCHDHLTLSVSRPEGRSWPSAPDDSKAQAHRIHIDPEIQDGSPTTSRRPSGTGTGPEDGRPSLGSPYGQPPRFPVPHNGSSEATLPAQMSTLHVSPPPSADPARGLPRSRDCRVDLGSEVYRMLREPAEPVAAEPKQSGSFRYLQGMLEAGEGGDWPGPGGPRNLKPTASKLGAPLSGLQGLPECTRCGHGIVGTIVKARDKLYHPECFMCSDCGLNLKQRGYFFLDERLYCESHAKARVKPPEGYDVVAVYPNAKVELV
As to the kind of experiment: pull-down.

The source of these data is publication PMC2699145 (The Journal of Cell Biology, 2009).

B1: GST fusion protein containing the SH2 domain of Src ([…]) (domain or fragment)
chain: not shown
Consider B1, for which the binding result is “binds”.
